The whole screen tested about 140,000 compounds, of which about 240 (0.17%) were called active. Inconclusive results, whose numbers are uncertain, are shown with a selection of clear calls. Calls come from the whole dose curve; as a rule, active = well fitted inhibition curve with a large enough effect; inconclusive = small, poorly fitted or top-dose-only effect; inactive = no such curve, though single readings can be large or run the other way. Where the call is inconclusive, the potency comes from a doubtful curve fit.
Assay: Primary qHTS assay for inhibitors of alpha-synuclein gene (SNCA) expression; note: nearly all actives have a fitted effect of over 45% in size
Conditions: HEK-293 SNCA-luciferase knock-in, luminescence, 24 h; series mostly up to 57.2 µM
Potency is the fitted concentration of half-maximal effect; tags give direction and shape of the fitted curve.

SMILES | Potency
Cc1cc(Cl)ccc1S(=O)(=O)N1CCC(Oc2ccc(C(N)=O)cn2)CC1 | inactive
Cc1noc(C)c1CN[C@@H]1C[C@H](CO)[C@@H](O)[C@H]1O | inconclusive: 7.94 µM [inhibitor, full curve]
Cc1ccc(C)c(N2CCN(S(=O)(=O)c3ccc4[nH]c5c(c4c3)CCCC5)CC2)c1 | inconclusive: 39.8 µM [inhibitor, single point]
Cc1ccc(OCc2nc(C3CCN(C(=O)CCc4nc5ccc(Cl)cc5[nH]4)CC3)no2)cc1 | inconclusive: 39.8 µM [inhibitor, single point]
Cc1cccc(CN2CCc3nc(N(C)Cc4cccnc4)[nH]c(=O)c3CC2)c1 | inconclusive: 5.01 µM [inhibitor, full curve, poor fit]
CCOc1ccc(NC(=O)CSc2ncc(S(=O)(=O)c3ccc(F)c(C)c3)c(=O)[nH]2)cc1 | inconclusive: 39.8 µM [inhibitor, single point]
CCc1cc(=O)n(Cc2ccccc2)c(N2CCOCC2)n1 | inactive
O=C(c1cnccn1)N1CCCC(c2ccccc2)(c2ccccc2)C1 | inactive
COc1ccc2cc(C3CN(C(=O)c4cccc(CO)c4)CCO3)ccc2c1 (stereo not drawn) | inconclusive: 25.1 µM [inhibitor, single point]
O=C1c2[nH]nc(-c3ccccc3O)c2C(c2cccc(OCc3ccccc3)c2)N1CCCO (stereo not drawn) | inconclusive: 39.8 µM [inhibitor, single point]
Cc1c(C(=O)N2CCCC2)oc2c1-c1nn(CC(=O)NCc3ccc(OC(C)C)cc3)cc1CC2 | inconclusive: 20 µM [inhibitor, single point]
C[S+](=O)([O-])c1ccc(-c2cc(C(=O)NC3CCCC3)nn3cccc23)cc1 | inconclusive: 39.8 µM [inhibitor, single point]
CCOC(=O)c1cc(-c2ccccc2)n(CCCC(=O)Nc2ccc(C)c(Cl)c2)c1C | inconclusive: 20 µM [inhibitor, single point]
Cc1cc(C)cc(C(=O)NCCn2cccc2-c2nc(-c3ccc4c(c3)OCO4)no2)c1 | inactive
O=C(NCc1cc(F)ccc1F)c1csc(N2CCN(c3ccccc3F)CC2)n1 | inconclusive: 12.6 µM [inhibitor, partial curve, poor fit]
O=C(COc1ccccc1)Nc1ccc2c(c1)CN(CCc1ccc(F)cc1)C(=O)CO2 | inactive
COC(=O)CNC(=O)N1CCC(N2C(=O)C3(CCCC3)C2c2scnc2C)CC1 (stereo not drawn) | inconclusive: 25.1 µM [inhibitor, partial curve]
Cc1nn2c(c1-c1ccnn1C(C)C)N(Cc1ccc(C(=O)O)s1)CCC2 | inconclusive: 3.55 µM [inhibitor, full curve, poor fit]
CCc1ccc(NC(=O)Cn2c(=O)c3cccn3c3ccccc32)cc1 | inconclusive: 28.2 µM [inhibitor, single point]
COCCn1c(=O)c2c(n1Cc1ccccc1)CN(C(=O)c1scnc1C)CC2 | inconclusive: 35.5 µM [inhibitor, single point]
CCc1nc(NCc2cn[nH]c2-c2ccc(Cl)cc2)c2cnn(C)c2n1 | inconclusive: 3.16 µM [inhibitor, partial curve, poor fit]

SMILES | Potency
N#Cc1ccc(CN2CCCC3(COc4ccccc4C(=O)N3)C2)cc1 (stereo not drawn) | inconclusive: 3.55 µM [inhibitor, full curve, poor fit]
Cc1nc(CN2C[C@H](C(=O)Nc3cccc(F)c3)C[C@@H]2c2ccc(F)cc2)cs1 | inactive
COC(=O)c1ccc2nc(CO[C@H]3CN(C(=O)C4CCOCC4)C[C@H]3F)[nH]c2c1 | inactive
COc1ccc(-c2noc([C@@H]3Cc4nc[nH]c4CN3C(=O)CC(C)(C)CC(=O)O)n2)cc1 | inconclusive: 3.55 µM [inhibitor, partial curve, poor fit]
CCS(=O)(=O)Nc1ccc(C2(C(=O)Nc3cccc(F)c3C)CCCCC2)cc1 | inactive
CCC1CCCCN1CCCNC(=O)c1cn(C)c2ccc(S(=O)(=O)N(C)C3CCCCC3)cc2c1=O (stereo not drawn) | inconclusive: 3.98 µM [inhibitor, partial curve]
CN1C(=O)CCCCC1C(=O)NCC1CCN(Cc2cccc(F)c2)CC1 (stereo not drawn) | inactive
COC(=O)c1ccc(NC(=O)c2cnn(-c3ccc(Cl)cc3)c2C2CCN(C(=O)OC(C)(C)C)CC2)cc1 | inconclusive: 14.1 µM [inhibitor, partial curve, poor fit]
CC(C)(C)OC(=O)N1CCC(c2c(C(=O)N3CCCCC3)cnn2-c2ccc(F)cc2)CC1 | inconclusive: 39.8 µM [inhibitor, single point]
CCSc1ccccc1C(=O)N1CCN(c2nc3ccccc3s2)CC1 | inconclusive: 2 µM [inhibitor, full curve, poor fit]
O=c1cc(-c2ccccc2Cl)nc(-c2ccc(CN3CCC[C@@H](O)C3)cc2)[nH]1 | inconclusive: 39.8 µM [inhibitor, single point]
O=c1c2nc(-c3ccccc3F)ccc2ncn1Cc1ccccn1 | inactive
Fc1ccc(-c2cnc3n2C[C@H](CN(Cc2ccccc2)Cc2ccccc2)OC3)cc1 | inconclusive: 56.2 µM [inhibitor, single point]
COc1ccc(-n2c(C)nc3c(cnn3-c3ccc(C)c(C)c3)c2=O)cc1Cl | inconclusive: 2.24 µM [inhibitor, single point]
Cc1ccc(NC(=O)CN2C(=O)C(c3ccccc3)=NC23CCCCC3)cc1C | inconclusive: 14.1 µM [inhibitor, single point]
COCCCNC(=O)C1CCCN(Cc2ccncc2)CCC(=O)NCC1 (stereo not drawn) | inconclusive: 4.47 µM [inhibitor, partial curve, poor fit]
CC1=C[C@@H](CC#N)[C@H](C(C)C)C[C@H]1CC(=O)N1CCN(c2cnccn2)CC1 | inconclusive: 12.6 µM [inhibitor, single point]
Cc1cc(=O)n(CC(=O)Nc2ccc3c(c2)OCCO3)c(N2CCc3ccccc3C2)n1 | inconclusive: 39.8 µM [inhibitor, single point]
Cc1noc2c(-c3cccc(CO)c3)cc(-c3cccc(C(F)(F)F)c3)nc12 | inconclusive: 39.8 µM [inhibitor, partial curve, poor fit]
CCOc1ccc(C(=O)Nc2ccc(-c3cc4ccccc4oc3=O)cc2)cc1Br | inconclusive: 2.51 µM [inhibitor, partial curve, poor fit]
Cc1ccc(CNC(=O)N2CCC(c3noc(-c4ccccc4)n3)C2)cc1 (stereo not drawn) | inconclusive: 1.26 µM [inhibitor, full curve, poor fit]

SMILES | Potency
O=C(NCC1CCCCCC1)C1CCCN(c2nccc(Nc3ccccc3F)n2)C1 (stereo not drawn) | inconclusive: 10 µM [inhibitor, partial curve, poor fit]
Fc1ccc(-c2ccc3ncc(Nc4cc(F)cc(N5CCOCC5)c4)n3n2)cc1 | inconclusive: 56.2 µM [inhibitor, single point]
CCc1cccc(NC(=O)C2(Cc3ccccc3)CCCCC(=O)N2)c1 (stereo not drawn) | inactive
COCCOC1CN(C2CCN(Cc3cccc(C)c3)CC2)C12CCCCC2 (stereo not drawn) | inconclusive: 8.91 µM [inhibitor, single point]
N#Cc1cccc(CN2C[C@@H](CO)[C@H](c3ccccn3)C2)c1 | inactive
O=C(Nc1nc2c(s1)CCC2)C1CC(=O)N(c2n[nH]c3ccccc23)C1 (stereo not drawn) | inconclusive: 5.62 µM [inhibitor, partial curve]
COc1ccc(-c2ncc3c(n2)OCCN(Cc2ccccc2)C3=O)cc1 | inactive
Cc1cccc(C(=O)N2CCCC(Cc3nncn3C)C2)c1 (stereo not drawn) | inconclusive: 8.91 µM [inhibitor, single point]
Cc1cccc(OCCc2noc(C3CNC3)n2)c1 | inconclusive: 39.8 µM [inhibitor, single point]
CC(C)CCN1C[C@H]2[C@H](C1)[S+](=O)([O-])C(C)(C)C(=O)N2Cc1ccc(O)cc1 | inconclusive: 2.82 µM [inhibitor, full curve]
Cc1cc(C(=O)N2CCC3(CC2)CC(N2CCN(CC(C)C)CC2)CCO3)nn1C (stereo not drawn) | inconclusive: 8.91 µM [inhibitor, single point]
Cc1nn2c(c1-c1cccnc1N1CCOCC1)N(CCC(C)C)CCC2 | inconclusive: 8.91 µM [inhibitor, partial curve]
O=C(NCCCc1ccccc1)C1CCCN(c2nc3ncccc3o2)C1 (stereo not drawn) | inconclusive: 8.91 µM [inhibitor, single point]
CCn1c(C(=O)N2CCC(C(=O)NCCc3ccc(C)cc3)CC2)cc2sccc21 | inconclusive: 39.8 µM [inhibitor, single point]
CCOC(=O)c1ccc(N2C(=O)c3n[nH]c(-c4ccco4)c3C2c2cccc(OC)c2)cc1 (stereo not drawn) | inconclusive: 14.1 µM [inhibitor, partial curve, poor fit]
Cc1nnc2n1C(C)CN(C(=O)CCSc1ccc3c(c1)OCCO3)C2 (stereo not drawn) | inactive
COc1ccc(C(=O)N2CCCC2C(=O)N2CCC(c3ccccc3)CC2)cc1 (stereo not drawn) | inactive
CCNc1ncc2nc(-c3cc(F)cc(F)c3)c(=O)n(-c3ccccc3)c2n1 | inactive
O=C(Nc1cccnc1)c1nc2c(o1)CCN(Cc1cccc(O)c1)CC2 | inactive
CCn1cc(S(=O)(=O)N2CCCC(Cc3noc(-c4cnccn4)n3)C2)cn1 (stereo not drawn) | inactive
Cn1nccc1C(=O)N1CCC2(CC1)NCCc1c2[nH]c2ccccc12 | inconclusive: 39.8 µM [inhibitor, single point]
